According to article PMC12579954:
Results are given in words; binding and its absence hold for the method and conditions named. For some of these results: In cells and extracts the contact can be indirect. Some binding calls cover weakened binding; strength is not graded here. For some of these results: Where a sequence is shown, tags or fusion partners need not be part of it. Values belong to the molecule of their own block, whether it stands above or below them.

Amino acid sequences for entries named in this document (tags omitted). A change or cut given only in a name is not applied to a line headed by its entry. Chains listed by the source or under a name are the forms on record and can include a tag or linker. Residues count along the entry.
human STX4, cytosolic fragment (residues 1–271 with 272C, lacking the transmembrane domain) (Q12846, form named): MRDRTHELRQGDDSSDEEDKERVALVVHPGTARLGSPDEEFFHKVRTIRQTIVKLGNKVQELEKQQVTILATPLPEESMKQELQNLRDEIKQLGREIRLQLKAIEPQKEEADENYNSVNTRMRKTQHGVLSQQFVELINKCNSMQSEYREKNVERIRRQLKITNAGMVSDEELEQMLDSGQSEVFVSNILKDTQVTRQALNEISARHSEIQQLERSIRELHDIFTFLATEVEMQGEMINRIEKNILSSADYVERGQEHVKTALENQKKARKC
UniProt P70452: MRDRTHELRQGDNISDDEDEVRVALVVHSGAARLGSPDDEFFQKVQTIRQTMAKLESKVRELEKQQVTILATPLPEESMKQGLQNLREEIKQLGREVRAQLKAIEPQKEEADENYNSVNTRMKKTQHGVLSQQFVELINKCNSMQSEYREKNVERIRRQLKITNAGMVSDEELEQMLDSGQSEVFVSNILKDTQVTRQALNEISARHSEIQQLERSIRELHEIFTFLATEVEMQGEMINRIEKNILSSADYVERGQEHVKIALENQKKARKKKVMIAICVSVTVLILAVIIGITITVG
UniProt P63024: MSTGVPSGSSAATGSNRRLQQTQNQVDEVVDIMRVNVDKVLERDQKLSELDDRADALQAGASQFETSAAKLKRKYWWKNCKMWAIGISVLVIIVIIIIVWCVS
human VAMP3 WT, cytosolic fragment (residues 1–77, lacking the transmembrane domain) (Q15836, residues 1-77): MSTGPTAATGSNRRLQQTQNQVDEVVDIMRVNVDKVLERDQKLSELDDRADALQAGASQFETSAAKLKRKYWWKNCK
human VAMP3 S44A, cytosolic fragment (residues 1–77) (Q15836, form named): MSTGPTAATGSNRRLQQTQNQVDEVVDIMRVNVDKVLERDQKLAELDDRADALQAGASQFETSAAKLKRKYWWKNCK
human VAMP3 S44E, cytosolic fragment (residues 1–77) (Q15836, form named): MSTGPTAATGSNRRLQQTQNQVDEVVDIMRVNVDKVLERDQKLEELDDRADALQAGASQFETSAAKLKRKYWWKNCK
UniProt P63045, residues 49-96: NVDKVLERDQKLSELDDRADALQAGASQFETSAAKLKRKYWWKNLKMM

Tests used:
[1] = target: human STX4, cytosolic fragment (residues 1–271 with 272C, lacking the transmembrane domain) (human) (UniProt Q12846); experiment: SEC; 100 mM (so in the source) of each protein mixed, overnight at room temperature; complex purified on ENrich SEC 70 in 20 mM HEPES pH 7.4, 100 mM NaCl, 0.2 mM TCEP, 1% CHAPS; both purified
[2] = target: T1, GFP–WDFY2 (human WDFY2) (human) (UniProt Q96P53); experiment: co-IP; HEK293 cells co-transfected with pEGFP-N1-WDFY2 and a VAMP3–mCherry construct; RIPA lysate, 2 mg protein, anti-GFP antibody overnight at 4°C, protein A/G magnetic beads; blots for WDFY2 and VAMP3
T1 sequence: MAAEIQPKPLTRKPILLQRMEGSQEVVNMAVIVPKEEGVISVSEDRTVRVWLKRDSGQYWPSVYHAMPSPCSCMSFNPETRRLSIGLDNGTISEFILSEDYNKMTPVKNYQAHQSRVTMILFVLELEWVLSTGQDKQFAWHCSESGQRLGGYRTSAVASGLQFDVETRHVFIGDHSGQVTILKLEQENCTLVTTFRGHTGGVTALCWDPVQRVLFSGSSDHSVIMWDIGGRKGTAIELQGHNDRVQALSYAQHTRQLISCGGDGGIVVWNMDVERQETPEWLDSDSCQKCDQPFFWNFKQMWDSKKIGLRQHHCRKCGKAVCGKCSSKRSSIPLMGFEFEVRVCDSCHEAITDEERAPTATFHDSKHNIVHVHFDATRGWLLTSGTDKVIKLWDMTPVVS

[3] = target: STX4–mCitrine (mouse STX4), in dendritic cells (mouse) (UniProt P70452); experiment: FRET or BRET; FRET–FLIM in live human monocyte-derived dendritic cells at 37°C; donor STX4–mCitrine, acceptor VAMP3–mCherry; lifetime of STX4–mCitrine analysed at the cell periphery (approximating the plasma membrane)
[4] = target: preformed acceptor complex of SNAP23, cytosolic fragment of STX4 and VAMP2(49–96) (UniProt Q12846); experiment: SDS-resistant SNARE complex formation (SDS-PAGE, Coomassie Blue); 10 mM (so in the source) of the STX4 complex with SNAP23 and VAMP2 (49–96) mixed with VAMP3, room temperature overnight; samples heated 10 min at 95°C or not heated; ternary complexes SDS resistant at 20°C; single experiment; both purified

Molecule: VAMP3–mCherry S48A (mouse VAMP3, phosphodead), in dendritic cells (from UniProt P63024 1-103)
- binding [3]: binds

Molecule: VAMP3–mCherry S48E (mouse VAMP3, phosphomimetic), in dendritic cells (from UniProt P63024 1-103)
- binding [3]: binds

Molecule: VAMP3–mCherry WT (mouse VAMP3), in HEK293 cells (from UniProt P63024 1-103)
- binding [2]: binds

Molecule: human VAMP3 S44A, cytosolic fragment (residues 1–77) (from UniProt Q15836 1-77) (domain or fragment)
- binding [4]: binds

Molecule: human VAMP3 WT, cytosolic fragment (residues 1–77, lacking the transmembrane domain) (from UniProt Q15836 1-77) (domain or fragment)
- binding [4]: binds

Further lines, results first:

- binding [1]: binds
Molecule: VAMP2 (49–96) (from UniProt P63045 49-96) (domain or fragment)

- binding [2]: no binding
Molecule: VAMP3–mCherry S48A (mouse VAMP3), in HEK293 cells (from UniProt P63024 1-103)

- binding [2]: no binding
Molecule: VAMP3–mCherry S48E (mouse VAMP3), in HEK293 cells (from UniProt P63024 1-103)

- binding [4]: binds
Molecule: human VAMP3 S44E, cytosolic fragment (residues 1–77) (from UniProt Q15836 1-77) (domain or fragment)

- binding [1]: binds
B1: SNAP23 (protein, UniProt O00161 1-211)
chain: MDNLSSEEIQQRAHQITDESLESTRRILGLAIESQDAGIKTITMLDEQKEQLNRIEEGLDQINKDMRETEKTLTELNKCCGLCVCPCNRTKNFESGKAYKTTWGDGGENSPCNVVSKQPGPVTNGQLQQPTTGAASGGYIKRITNDAREDEMEENLTQVGSILGNLKDMALNIGNEIDAQNPQIKRITDKADTNRDRIDIANARAKKLIDS
